# From paper PMC4336329 (PLoS ONE, 2015)
# Out of some 310,000 compounds screened, about 14,000 (4.5%) showed an effect of 50% or more. The effect is printed as a negative number. This is one part of the list.
# Target: human ether-à-go-go-related gene (hERG) potassium channel (human, UniProt Q12809)
# Experiment: primary screen, population patch clamp on CHO cells stably expressing hERG
# 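Note: peak tail current of the secondary pulse compared with the same well before compound.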
# Sequence of human ether-à-go-go-related gene (hERG) potassium channel (Q12809 whole entry, looked up): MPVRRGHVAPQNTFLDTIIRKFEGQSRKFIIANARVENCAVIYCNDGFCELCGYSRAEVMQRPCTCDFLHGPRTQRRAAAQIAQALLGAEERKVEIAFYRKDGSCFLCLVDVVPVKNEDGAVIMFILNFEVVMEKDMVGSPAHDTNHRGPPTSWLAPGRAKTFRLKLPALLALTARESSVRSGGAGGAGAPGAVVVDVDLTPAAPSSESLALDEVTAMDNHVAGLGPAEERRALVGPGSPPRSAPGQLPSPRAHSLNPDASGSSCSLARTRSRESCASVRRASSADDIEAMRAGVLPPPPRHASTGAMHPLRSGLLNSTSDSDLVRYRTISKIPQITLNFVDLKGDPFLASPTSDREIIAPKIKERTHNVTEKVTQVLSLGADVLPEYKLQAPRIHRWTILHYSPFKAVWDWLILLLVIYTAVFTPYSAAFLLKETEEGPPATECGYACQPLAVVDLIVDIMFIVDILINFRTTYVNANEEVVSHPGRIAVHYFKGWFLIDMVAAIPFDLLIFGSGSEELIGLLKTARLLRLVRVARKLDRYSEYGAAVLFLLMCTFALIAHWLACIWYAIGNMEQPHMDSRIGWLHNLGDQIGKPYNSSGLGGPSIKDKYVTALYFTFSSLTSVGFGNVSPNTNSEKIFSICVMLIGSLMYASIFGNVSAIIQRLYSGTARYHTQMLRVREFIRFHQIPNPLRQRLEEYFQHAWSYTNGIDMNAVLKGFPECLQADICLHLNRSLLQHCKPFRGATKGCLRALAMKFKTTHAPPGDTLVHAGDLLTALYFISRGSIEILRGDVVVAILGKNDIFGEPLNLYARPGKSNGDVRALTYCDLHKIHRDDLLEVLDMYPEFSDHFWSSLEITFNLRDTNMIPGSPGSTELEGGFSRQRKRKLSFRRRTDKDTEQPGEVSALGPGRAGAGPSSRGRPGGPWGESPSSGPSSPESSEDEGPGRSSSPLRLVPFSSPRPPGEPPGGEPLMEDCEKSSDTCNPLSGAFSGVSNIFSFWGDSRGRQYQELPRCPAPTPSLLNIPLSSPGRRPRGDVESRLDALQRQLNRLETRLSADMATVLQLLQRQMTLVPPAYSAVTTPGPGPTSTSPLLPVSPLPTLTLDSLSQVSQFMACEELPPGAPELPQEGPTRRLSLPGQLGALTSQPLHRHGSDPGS
row,Structure (SMILES),"hERG current change (%, negative = inhibition) at 10uM [%]"
1,CCOC(CNC(=O)c1cc(C)nn1-c1ccccc1)OCC,-10.1
2,O=C(Nc1sc2c(c1C(=O)O)CCCC2)c1cccs1,16.7
3,CCc1ccc(NC(=S)N2CCCC(C(F)(F)F)C2)cc1 (centres unmarked),8.05
4,COc1cc(CC(NC(C)=O)C(=O)NC2CCN(C(=O)Nc3ccccc3Cl)CC2)cc(OC)c1 (centres unmarked),33.4
5,CC(C)(C)CNc1cc(N2CCCC2)ccc1[N+](=O)[O-],-1.39
6,CCOC(=O)C1(Cc2ccccc2C)CCCN(C(=O)CSC)C1 (centres unmarked),8.57
7,Cc1cc(C)cc(NS(=O)(=O)c2cccs2)c1,-0.0983
8,CC(C)CC1NC(=O)N(CC(=O)Nc2ccc3c(c2)OCCO3)C1=O (centres unmarked),6.18
9,Cc1ccccc1CC(=O)NC1CCN(Cc2ccccc2)CC1,1.87
10,CCc1cc2c(=O)n(Cc3ccco3)c(SCC(=O)NC3CCS(=O)(=O)C3)nc2s1 (centres unmarked),-72.2
11,Cc1ccc(N2C(=O)S/C(=C/c3cn(C)c4ccccc34)C2=O)cc1,8.89
12,O=C(NC(=S)Nc1cccc(O)c1)c1ccco1,10.1
13,Cl.c1csc(COc2ccccc2CNC2CCCCC2)c1,-37.5
14,Cc1ccc(-c2cc(-c3ccccc3O)nc(N/N=C/c3cccnc3)n2)cc1,7.52
15,COc1cc(CN2CCCC(C(=O)c3ccc(C(C)(C)C)cc3)C2)cc(OC)c1O (centres unmarked),-47.3
16,Cc1cccc(N=Nc2c(O)[nH]c3ccc(F)cc23)c1,14.3
17,Cn1ccnc1C1CCCCN1Cc1nc(-c2ccc(Cl)cc2)no1 (centres unmarked),-23.1
18,O=C1COc2ccc(S(=O)(=O)NCc3ccc(Cl)cc3)cc2N1,-3.47
19,COc1ccccc1C(=O)NC(=O)COC(=O)c1ncc(Cl)c(Cl)c1Cl,3.55
20,COC(=O)c1ccccc1-c1ccc(/C=N/NC(N)=O)o1,-20.8
21,CCOc1cccc(-c2cc(C(=O)N3N=C(C)CC3(O)C(F)F)c3ccccc3n2)c1 (centres unmarked),-13.6
22,COC(=O)c1ccc2nc(-c3ccc4c(c3)OCO4)cn2c1,17.3

row,Structure (SMILES),"hERG current change (%, negative = inhibition) at 10uM [%]"
1,O=C(NCC1CCCCC1)c1cccc(S(=O)(=O)NCc2cccnc2)c1,-0.696
2,CC1CC(C)CN(C(=O)COC(=O)CNC(=O)C23CC4CC(CC(C4)C2)C3)C1 (centres unmarked),7.91
3,O=C(CCS(=O)(=O)c1cccc2nsnc12)N1CCN(C(=O)c2ccco2)CC1,3.26
4,CC1CCCCC12NC(=O)N(Cn1nnc3ccccc3c1=O)C2=O (centres unmarked),-17.2
5,CCOc1ccc(NC(=O)CNC(=O)c2nn(-c3ccc(OC)c(OC)c3)c(=O)c3ccccc23)cc1,19.9
6,CC(CN(C)Cc1ccccc1)OC(=O)c1cccc(F)c1.Cl (centres unmarked),1.12
7,Cc1cc(C(=O)O)ccc1-c1ccc(/C=C2\NC(=O)N(Cc3ccc(F)cc3)C2=O)o1,15.4
8,COc1ccc(C(=O)/C=C/C(=O)N(Cc2ccccc2)C(C(=O)NC2CCCCC2)c2ccncc2)c(O)c1 (centres unmarked),-19.3
9,CC(C)(C)C(=O)Nc1sc2c(c1-c1nc3ccccc3[nH]1)CCCC2,3.05
10,Cc1ccc(N=Nc2c(C)[nH]n(-c3ccccc3)c2=O)c(C)c1,22
11,O=C(COc1ccc(Cl)cc1Cl)N(Cc1ccco1)C1CCS(=O)(=O)C1 (centres unmarked),-25.9
12,CN(C)CCCN1c2ccccc2Sc2ccccc21.Cl,-28.1
13,CC(=O)Oc1ccc2c(c1)OC(c1ccccc1)CC21CC(C)(C)NC(=S)N1 (centres unmarked),-12.8
14,Cc1ccc(N2C(=O)CC(Sc3ncccc3C(=O)O)C2=O)cc1 (centres unmarked),10.6
15,O=C(NCCO)c1nc(C(=O)c2ccccc2)c2ccccc2n1,15.9
16,Cc1cc(C(=O)NNC(=O)/C=C/c2ccc(F)cc2)c(C)o1,1.41
17,N#Cc1ccc(C(=O)NCC(c2ccco2)N2CCCCC2)cc1 (centres unmarked),-47.9
18,CCOC(=O)c1c(C)[nH]c(C(=O)COC(=O)C23CC4CC(CC(Cl)(C4)C2)C3)c1C,11.6
19,Cc1ccccc1NC(=O)c1cccc(N2C(=O)C3CCCCC3C2=O)c1 (centres unmarked),11.4
20,C/C(=N\NC(=O)c1nnn(-c2nonc2N)c1CN(C)C)c1ccco1,-33.2
21,CCOC(=O)C1CCCN(c2cc(C)nc3cc(-c4ccc(Cl)cc4)nn23)C1 (centres unmarked),9.61
22,COc1ccc(S(=O)(=O)N2CCCCC2)cc1-n1cnnn1,6.64
